Test results taken from PubChem BioAssay AID1625 (Sanford-Burnham Center for Chemical Genomics, 2009).
This is one part of the list. Further columns of the screen follow, without active or inactive calls. Compounds called inactive in the main read-out are mostly missing here.

Assay: up-regulation of insulin promoter-GFP reporter – imaging, high-content screening, mouse beta cells (AID 1625);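 further: total cells summed across four imaged fields per well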
Settings: MIN6 insulin promoter-GFP reporter, measured here: cytotoxicity, nuclei count, at 5 µM

| Compound | cell count |
| --- | --- |
| Fc1ccc2[nH]c3c(N4CCN(C5CCCCC5)CC4)ncnc3c2c1 | 429 cells |
| CCC(Oc1ccccc1)C(=O)NCc1ccc(S(N)(=O)=O)cc1 (configuration not stated) | 366 cells |
| COc1ccc(C(=O)c2sc3nc(-c4ccccc4)ccc3c2N)cc1 | 351 cells |
| O=C(NCc1cccnc1)c1c[nH]c2cc3c(cc2c1=O)OCCO3 | 346 cells |
| C=CCNc1nc2c(c(=O)n(C)c(=O)n2C)n1CCCCCC | 400 cells |
| CC[n+]1c(C=C2C=C(C)OC(C)=C2)sc2ccccc21 | 392 cells |
| N#C/C(=C\C1=C(N2CCOCC2)C(=C/c2cccc([N+](=O)[O-])c2)/CC1)C(=O)Nc1ccccc1F | 1030 cells |
| COC(=O)c1ccc(COc2ccc3c(C)c(C)c(=O)oc3c2)o1 | 1150 cells |
| CCOC(=O)C1CCN(C(=O)c2sc3nc(C)nc(N4CCC(C)CC4)c3c2C)CC1 | 329 cells |
| CN1/C(=C\C(=O)CN2C(=O)NC3(CCCCCC3)C2=O)C(C)(C)c2ccccc21 | 464 cells |
| COc1ccc(NC(=O)c2sc3nc(-c4cccnc4)ccc3c2N)cc1 | 1010 cells |
| CCOC(=O)COc1ccc(C(=O)NC2CCCCC2)cc1 | 1490 cells |
| CC(=O)N1[C@H](Cc2ccccc2)C=C[C@]1(C)C(=O)NCCc1c[nH]c2ccccc12 | 435 cells |
| Cc1ccc2nc(/C(C#N)=C\c3ccc([N+](=O)[O-])o3)[nH]c2c1 | 77 cells |
| O=[N+]([O-])c1ccc(N/N=C/c2sc(N3CCOCC3)nc2-c2ccccc2)c(S(=O)(=O)Nc2ccc(Cl)cc2)c1 | 368 cells |
| CCn1cc(C(=O)NCCN(C)CCc2ccccc2)c(=O)c2cc(S(=O)(=O)N(C)C)ccc21 | 1560 cells |
| CCc1cc2c(NCc3ccco3)ncnc2s1 | 367 cells |
| O=C(COc1ccc(Cl)cc1)NCc1nnc(SCC(=O)NC2CCCCC2)o1 | 1190 cells |
| COc1ccc(-n2c(-c3ccc(Br)cc3)c[n+]3c2SC(C)C3)cc1 (configuration not stated) | 378 cells |
| O=C1S/C(=C/c2ccc(N3CCOCC3)o2)C(=O)N1Cc1ccc(F)cc1 | 1480 cells |
| NS(=O)(=O)c1ccc(NC=C2C(=O)OC3(CCCCC3)OC2=O)cc1 | 1180 cells |
| Cc1ccc2nc(/C(C#N)=C\c3ccc(N4CCOCC4)o3)[nH]c2c1 | 951 cells |
| CC1CCCCC1NS(=O)(=O)c1ccc(S(=O)(=O)NCc2ccncc2)cc1 (configuration not stated) | 324 cells |
| Cc1cc(NC(=O)CSc2ccc3nnc(-c4ccc(Cl)cc4)n3n2)no1 | 395 cells |
| COc1cc2c3nnc(-c4ccc(F)cc4)c-3cn(Cc3ccccc3)c2cc1OC | 1820 cells |
| Cc1ccc(Nc2nc(N)nc(CN3CCN(Cc4ccc5c(c4)OCO5)CC3)n2)c(C)c1 | 336 cells |

| Compound | cell count |
| --- | --- |
| CC1=CN2C(=N)/C(=C/c3ccc([N+](=O)[O-])o3)C(=O)N=C2S1 | 515 cells |
| CCC(C)NS(=O)(=O)c1ccc(S(=O)(=O)N2CCCC3(CCCCC3)C2)cc1 (configuration not stated) | 486 cells |
| CC(C)(C)c1ccccc1OCC(=O)Nc1ncn[nH]1 | 379 cells |
| CCCCN1C(=O)C2(NNc3ccccc3O2)c2ccccc21 (configuration not stated) | 694 cells |
| O=S(=O)([O-])CCC[n+]1c(/C=C\Nc2ccccc2)oc2ccc(-c3ccccc3)cc21 | 1060 cells |
| Nc1ccc2c(c1)Cc1cc([N+](=O)[O-])ccc1-2 | 1180 cells |
| Cc1cccc(N=Cc2[nH]c3ccc(Br)c(Cl)c3c2O)c1 | 1300 cells |
| Cc1cc(C)c2sc(NNC(=O)c3ccc(S(=O)(=O)N4CCc5ccccc5C4)cc3)nc2c1 | 366 cells |
| C(=C\c1nc(N2CCCCCC2)c2ccccc2n1)/c1ccccc1 | 420 cells |
| Cc1cc(=O)[nH]c(SCC(=O)/C=C2\N(C)c3ccccc3C2(C)C)n1 | 268 cells |
| COc1ccc(C(=O)Nn2cnnc2)cc1OC | 877 cells |
| CN(C)c1nc(N)nc(/C(C#N)=C/C2CC3C=CC2C3)n1 (configuration not stated) | 1360 cells |
| O=C(COC(=O)Cc1ccccc1[N+](=O)[O-])NCc1ccccc1Cl | 453 cells |
| Cc1nc2ncnn2c(Nc2ccc3c(c2)OCO3)c1Cc1ccccc1 | 221 cells |
| CCOc1cc(C)c(S(=O)(=O)Nc2ccc3cn[nH]c3c2)cc1C | 1320 cells |
| COc1ccccc1C(=O)NC(=S)/C=C1/N(C)c2ccccc2C1(C)C | 498 cells |
| Oc1c(N=Nc2ccccn2)ccc2ccccc12 | 251 cells |
| Cc1ccccc1NCC(=O)N/N=C/c1c[nH]c2ccccc12 | 1130 cells |
| CCOC(=O)c1cc(C(C)(C)C)oc1CNC(=O)c1c(C)oc2c1CCCC2 | 452 cells |
| CCN(CC)c1ccc(/C=C(/C#N)C(=O)NC(C)C)o1 | 1550 cells |
| CCCCCCCCCCn1ccc(=N)cc1 | 233 cells |
| COC(=O)c1ccc2c(c1)C(C)(C)C(/C=C/c1ccccc1O)=[N+]2C | 392 cells |
| Cn1c(/C(C#N)=C/c2ccc(-c3ccc(S(N)(=O)=O)cc3)o2)nc2ccccc21 | 962 cells |
| O=C(CN(c1cccc(C(F)(F)F)c1)S(=O)(=O)c1ccc(Cl)c([N+](=O)[O-])c1)NCc1ccccc1Cl | 285 cells |
| Cc1cccc(NS(=O)(=O)c2ccc(C3CCCCC3)cc2)c1 | 431 cells |
| Cc1cc2nc3c(=O)n(C4CCCCC4)c(=O)[nH]c3nc2cc1N | 1220 cells |

| Compound | cell count |
| --- | --- |
| Cc1ccc2[nH]c(-c3ccccc3)c(CN(C)C)c(=O)c2c1 | 1280 cells |
| OC(COc1cccc2ccccc12)CN1CCN(c2ccccc2Cl)CC1 (configuration not stated) | 520 cells |
| CCOC(=O)C(=Cc1cc(=O)c(OC)co1)C(=O)OCC | 474 cells |
| CCCCCCn1ccc(=N)cc1 | 221 cells |
| CC(C)C(c1nnnn1C1CCCC1)N1CCOCC1 (configuration not stated) | 1430 cells |
| Cc1cccc(N2CCN(C(=O)CSCc3c(C)noc3C)CC2)c1C | 259 cells |
| Cc1ccc(Nc2nc(-c3c(C)nc4ccccn34)cs2)cc1 | 424 cells |
| C=CCSc1nnc(NC(=O)c2cccc(S(=O)(=O)N3CCOCC3)c2)s1 | 1310 cells |
| CC(=O)c1c(COC(=O)c2ccncc2)nc2ccccc2[n+]1[O-] | 967 cells |
| CCc1ccc(-c2nc(CN3CCC(C(=O)N4CCN(c5ccccc5)CC4)CC3)c(C)o2)cc1 | 496 cells |
| Cn1nc(-c2ccc(OCC(=O)NCC3CCCO3)cc2)c2ccccc2c1=O (configuration not stated) | 364 cells |
| O=C(O)c1ccccc1N/N=C/c1c(Sc2nnnn2-c2ccccc2)nc2ccccn2c1=O | 1410 cells |
| OCc1ccc(O)c2ncccc12 | 328 cells |
| O=C(NN=C1CCN(Cc2ccccc2)CC1)c1cccc(S(=O)(=O)Nc2ccccc2Cl)c1 | 1450 cells |
| COc1ccc(C2NCCc3c2[nH]c2ccccc32)cc1CN1CCc2cc(OC)c(OC)cc2C1C (configuration not stated) | 445 cells |
| O=[N+]([O-])c1ccc(N2CCCC2)cc1NC(c1ccccc1)c1ccccc1 | 445 cells |
| O=[N+]([O-])c1ccc(O)c(/C=N/Nc2ccc(Cl)nn2)c1 | 472 cells |
| C=CCC(c1ccccc1)N(C(C)=O)c1ccco1 (configuration not stated) | 1340 cells |
| O=C1C2C3C=CC(C3)C2C(=O)N1CCc1ccccc1 (configuration not stated) | 877 cells |
| Cc1ccc(-n2ncc(C(=O)Nc3cc(Cl)cc(Cl)c3)c2C2CCNCC2)cc1C | 460 cells |
| COCCn1c(C)cc(C(=O)COc2nc3ccccc3nc2C)c1C | 304 cells |
| CC[C@]1(O)C[C@@H]2CN(CCc3c([nH]c4ccccc34)[C@@](C(=O)OC)(c3cc4c(cc3OC)N(C)[C@H]3[C@@](O)(C(=O)OC)[C@H](OC(C)=O)[C@]5(CC)C=CCN6CC[C@]43[C@@H]65)C2)C1 | 310 cells |
| COCCNC(=S)N/N=C(\C)c1ccc2cc(OC)ccc2c1 | 1260 cells |
| Oc1ccc(Nc2nc(NCC3CCCO3)c3ccccc3n2)cc1 (configuration not stated) | 344 cells |
| CCCOc1ccc(/C=N/NC(=S)Nc2ccccc2[N+](=O)[O-])c(O)c1 | 440 cells |
| O=C1S/C(=C\c2ccc(N3CCOCC3)o2)C(=O)N1Cc1ccc(F)cc1 | 1620 cells |

| Compound | cell count |
| --- | --- |
| CC1=C/C(=N\OS(=O)(=O)c2ccccc2)C(C(C)C)=CC1=O | 393 cells |
| O=C1/C(=C/c2ccc(N3CCOCC3)o2)SC(=Nc2ccccc2)N1CCc1c[nH]c2ccccc12 | 1550 cells |
| CC1CCCN(c2nc3c(c(=O)n(C)c(=O)n3C)n2CCSc2nc3ccccc3s2)C1 (configuration not stated) | 610 cells |
| NC(=O)CC(NC(=O)c1ccc(Br)cc1)c1ccc(N2CCC(Br)CC2)c([N+](=O)[O-])c1 (configuration not stated) | 369 cells |
| Cc1ccccc1OCC(=O)OC1CCN(C)CC1 | 1520 cells |
| Cc1cccc2nc(CSc3nc4[nH]ncc4c(=O)n3-c3cccc(Cl)c3)cc(=O)n12 | 443 cells |
| CCc1ccc(-c2nc(CN3CCC(C(=O)NCc4ccccc4OC)CC3)c(C)o2)cc1 | 437 cells |
| CC1Cc2ccccc2N1C1=CC(=O)CCC1 (configuration not stated) | 497 cells |
| N=c1c2c(n(Cc3cccc(Cl)c3)c3c1CCC3)CCCC2 | 404 cells |
| COC(=O)c1c(NC(=O)c2nc3ccccc3s2)sc2c1CC(C)(C)NC2(C)C | 426 cells |
| CC(C)(C)NC(=O)CN(C(=O)Cn1nnc(-c2ccc(Cl)cc2)n1)C1CCN(Cc2ccccc2)CC1 | 279 cells |
| CC[n+]1c(/C=C/c2c[nH]c3ccccc23)ccc2cc(C)ccc21 | 494 cells |
| Cc1ccc(-n2c(C)nc3oc4ccccc4c(=O)c3c2=O)cc1 | 1090 cells |
| CC1CCC(C(C)C)C(OC(=O)Cn2c(-c3ccc(Cl)cc3)[n+](C)c3ccccc32)C1 (configuration not stated) | 394 cells |
| Cc1nn(Cc2ccc(Cl)c(Cl)c2)c(C)c1NC(=O)c1cc(-c2ccco2)on1 | 488 cells |
| CCCCCOC(=O)c1[nH]c2c(c1C)C(=O)CC(c1ccco1)C2 (configuration not stated) | 486 cells |
| O=C(CSc1ncn[nH]1)NCc1ccccc1 | 1240 cells |
| CC1(C)CC(N=c2cc(-c3ccccc3)oc3ccc(Cl)cc23)CC(C)(C)N1 | 436 cells |
| O=[N+]([O-])c1ccc(/C=N/n2cnc3ccccc32)s1 | 242 cells |
| N/C(=N\OC(=O)C1CCCCC1)c1cccc([N+](=O)[O-])c1 | 1360 cells |
| Cc1ccc(C2C3CN(C(C)C)CC=C3C(C#N)=C(N)C2(C#N)C#N)cc1 (configuration not stated) | 1130 cells |
| CCC(C)(C)c1ccc(OCCCC[n+]2ccccc2)c(C(C)(C)CC)c1 | 341 cells |
| COc1cc2nc(/C=C/c3ccc(N(C)C)cc3)sc2cc1SC | 1340 cells |
| COc1ccc2cc1Oc1ccc(cc1)CC1c3c(cc(OC)c4c3Oc3cc5c(cc3O4)CCNC5C2)CCN1C (configuration not stated) | 229 cells |
